# PubChem BioAssay AID488969 (Vanderbilt High Throughput Screening Facility, 2010)
# Over roughly 110,000 compounds, “z-score” has its median near -0.1; the highest 2% begin near 2. Some of the results follow.
# Target: Metabotropic glutamate receptor 8 (Rattus norvegicus) (UniProt P70579)
# Test: rat mGluR8 modulators via GIRK flux, primary screen, cell-based, thallium flux, HTS (AID 488969)
# Conditions: HEK293 rat mGluR8, GIRK (G protein-gated inwardly rectifying potassium channel) thallium flux, FluoZin2; at 10 µM; stronger effect = higher value; submaximal glutamate (EC20) added with thallium
# UniProt P70579, sequence (P70579 whole entry, looked up): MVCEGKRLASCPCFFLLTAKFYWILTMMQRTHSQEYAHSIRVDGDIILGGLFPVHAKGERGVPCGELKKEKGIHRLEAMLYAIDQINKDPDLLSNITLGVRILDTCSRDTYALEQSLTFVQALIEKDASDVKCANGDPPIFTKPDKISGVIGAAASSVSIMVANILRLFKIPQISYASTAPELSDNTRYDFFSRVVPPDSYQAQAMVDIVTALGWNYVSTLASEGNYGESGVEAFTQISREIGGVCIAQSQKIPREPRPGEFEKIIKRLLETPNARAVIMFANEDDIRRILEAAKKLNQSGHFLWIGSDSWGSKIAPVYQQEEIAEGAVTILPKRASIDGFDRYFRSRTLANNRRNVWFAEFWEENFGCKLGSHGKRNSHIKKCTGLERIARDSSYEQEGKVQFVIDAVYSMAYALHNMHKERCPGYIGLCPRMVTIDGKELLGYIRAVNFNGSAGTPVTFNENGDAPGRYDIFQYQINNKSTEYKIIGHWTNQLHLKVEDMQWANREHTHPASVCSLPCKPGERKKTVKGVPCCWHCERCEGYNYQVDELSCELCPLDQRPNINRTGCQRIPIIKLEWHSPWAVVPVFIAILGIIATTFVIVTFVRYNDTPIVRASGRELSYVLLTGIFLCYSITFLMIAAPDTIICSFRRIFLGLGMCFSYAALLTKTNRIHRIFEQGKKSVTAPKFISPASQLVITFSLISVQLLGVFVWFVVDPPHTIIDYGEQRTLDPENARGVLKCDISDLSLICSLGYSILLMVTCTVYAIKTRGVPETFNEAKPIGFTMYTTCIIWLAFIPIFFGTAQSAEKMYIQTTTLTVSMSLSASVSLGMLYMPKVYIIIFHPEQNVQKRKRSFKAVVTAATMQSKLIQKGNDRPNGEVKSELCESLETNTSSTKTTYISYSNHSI
row,Compound,z-score
1,CCCc1cc(N2CCCC2)n2nc(C)c(-c3ccccc3)c2n1,-0.291
2,CC(=O)Oc1c(C(=O)c2nnc(C)o2)c(=O)n(C)c2ccccc12,-0.074
3,CCCN1C(=O)SC(CC(=O)Nc2ccccc2C)C1=O (stereo unspecified),-0.0981
4,Cc1ccc(N2C(=O)c3n[nH]c(C)c3C2c2ccccn2)cc1 (stereo unspecified),-0.326
5,N/C(=N\c1nc2c(c(=O)[nH]1)CCC2)Nc1ccccc1C(F)(F)F,-0.161
6,CC(=O)c1ccc(OC(=O)c2cccs2)cc1,-0.705
7,CCOc1cc(C=O)ccc1OCCCN1C(=O)NC(C)(C)C1=O,-0.139
8,O=C(c1ccco1)N1CCN(C(c2ccc(Cl)cc2)c2nnnn2Cc2ccccc2)CC1 (stereo unspecified),-0.4
9,COC(=O)c1cc2c(-c3ccccc3)c(C)c3ccccn3c-2c1C(=O)OC,-0.24
10,CC(Oc1ccc(C(=O)NC2CCCCC2)cc1)C(=O)O (stereo unspecified),1.07
11,CCOC(=O)c1cccc(NC(=O)CN(C)S(=O)(=O)c2cnc[nH]2)c1,0.0312
12,COC(=O)c1c(-c2ccc(C)cc2)csc1NC(=S)NC(=O)c1ccc(F)cc1,-0.144
13,N/C(=N\OC(=O)C12CC3CC(CC(C3)C1)C2)c1ccccc1,-0.215
14,Cc1ccc(/C=N/N2CCN(c3ccncc3S(=O)(=O)N3CCCCC3)CC2)cc1,0.486
15,O=C(Cc1ccccc1)NC(NCCc1ccccc1)C(Cl)(Cl)Cl (stereo unspecified),-0.058
16,CCOC(=O)c1c(C)nc2ccc(C)cn12,-0.282
17,COc1cc(NC(C)CCCN)c2ncccc2c1Oc1ccccc1 (stereo unspecified),0.817
18,N#C/C(=C/c1ccc(C(=O)O)cc1)C(=O)NCc1ccccc1,-0.123
19,Cn1c(=O)c2c(ncn2CCCNC2=CC(C)(C)CC(=O)C2)n(C)c1=O,0.279
20,O=C(NN=C1CCCCCC1)c1ccc(Br)o1,0.0417
21,O=C(NC1=NCCS1)c1ccc2c(c1)C(=O)N(Cc1ccco1)C2=O,0.0114
22,CCOC(=O)C1=C(C)Nc2ncnn2C1c1ccc2c(c1)OCO2 (stereo unspecified),-0.217
23,CCCn1nnc(NC(=O)c2ccc(F)cc2)n1,-0.08

row,Compound,z-score
1,COc1ccccc1NC(=O)CN1CCN(CC(=O)Nc2ccc3c(c2)OCCO3)CC1,-1.33
2,Cc1cc2[nH]c(=S)[nH]c2cc1C,0.151
3,CCC(=O)NC(=S)Nc1ccc(NC(=O)c2ccccc2[N+](=O)[O-])cc1,-0.232
4,COc1ccc(CCNC(=O)CCN2C(=O)C3CC=CCC3C2=O)cc1OC (stereo unspecified),-0.988
5,N#C/C(=C\c1ccc(F)cc1)c1nc(-c2ccco2)cs1,-0.0562
6,C/C(=N\NC(=O)Cc1cccc2ccccc12)c1ccncc1,-0.275
7,Cc1cc(Cl)ccc1NC(=S)NCc1ccccc1,0.195
8,O=C(O)Cn1ncc2c1-c1ccoc1CC2,0.0592
9,N#C/C(=C/c1ccc(N2CCCCCC2)o1)c1ccc(Cl)cc1,-0.433
10,Cc1ccc(NS(=O)(=O)c2ccc(NC(=O)c3ccc(-c4ccccc4)cc3)cc2)c(C)c1,-0.2
11,Cn1c(SCc2nc3ccccc3[nH]2)nnc1-c1cccnc1,-0.278
12,COc1ccc(N2CCN(C(=O)c3ccc(NS(=O)(=O)c4ccc(F)cc4)cc3)CC2)cc1,-0.641
13,O=C(O)CC(C(=O)O)N1C(=O)/C(=C/c2ccc(-c3nc4ccccc4s3)o2)SC1=S (stereo unspecified),1.97
14,CCCNC(=O)Cn1c2ccccc2c2nc(=O)cc(C)n21,-1.69
15,CCN(CC)S(=O)(=O)c1cc([N+](=O)[O-])ccc1N=Nc1c(O)[nH]c2ccccc12,-0.035
16,CCc1cc(=O)oc2cc(OCc3nn[nH]n3)ccc12,-0.0454
17,CCOC(=O)C1=C(C)NC(=O)C1CC(=O)O (stereo unspecified),-0.156
18,Nc1nc(SCC(=O)NCC2CCCO2)n[nH]1 (stereo unspecified),0.767
19,Cc1ccc(C)c(N(C(=O)CCC(=O)Nc2cc(C)on2)C(C(=O)NC2CCCC2)c2ccco2)c1 (stereo unspecified),-0.454
20,COC(=O)C1=CN(C(C)C)C=C(C(=O)OC)C1c1cc2c(cc1Br)OCO2,-0.0368
21,CC1CC(C)(C)Nc2ccc(OC(=O)c3ccco3)cc21 (stereo unspecified),2.2
22,CN1CCN(c2ccc([N+](=O)[O-])cc2C(=O)c2ccc(Br)cc2)CC1,-0.228
23,Cc1ccc(NC(=O)c2cccc(OC(F)F)c2)c(OC(F)F)c1,-0.238

row,Compound,z-score
1,CCOc1cc(NC(=S)NCCCN2CCOCC2)c(OCC)cc1NC(=O)C(C)C,0.0126
2,Cc1cccc(NC(=O)CCN2C(=O)C3C4C=CC(C4)C3C2=O)n1 (stereo unspecified),-0.0103
3,COc1ccc(NC(=O)Nc2cc(C)ccc2OC(F)F)c(OC)c1,-0.567
4,O=C(NCc1ccco1)c1ccccc1NC(=O)C1CC(=O)N(c2ccc(Cl)cc2)C1 (stereo unspecified),-2.01
5,N#CCCn1ncn(-c2ccccc2)c1=S,-0.0781
6,Cc1ccc2oc(-c3cccc(NC(=O)/C=C/c4cccc([N+](=O)[O-])c4)c3C)nc2c1,0.028
7,COc1cc(OC)c(S(=O)(=O)NCc2ccco2)cc1S(=O)(=O)NCc1ccco1,0.395
8,O=C(Nc1c(-c2ccccc2)nc2ccccn12)c1ccco1,0.152
9,COCC(=O)Nc1nnc(COc2ccc(Cl)cc2)s1,0.279
10,CC(=O)N1CN(C2CCS(=O)(=O)C2)Cc2c1sc1c2CCCC1 (stereo unspecified),-0.439
11,Nn1c(SCC(=O)NCc2ccc3c(c2)OCO3)nnc1C1CC1,0.394
12,CCOc1ccc(N2C(=O)CN=C2Nc2ccccc2Cl)cc1,-0.893
13,COc1ccc(CNC(=O)C(C#N)c2nc3ccccc3nc2N2CCN(C)CC2)cc1 (stereo unspecified),0.201
14,N#CCCN(Cc1cccnc1)C(=O)Nc1ccc(Cl)c(Cl)c1,0.126
15,COc1cccc(CNc2cc(CSc3ccc(Cl)cc3)nc(C)n2)c1,0.736
16,Clc1cccc(CN2CCC(Cc3ccccc3)CC2)c1,0.188
17,O=c1c(CN2CCN(c3cccc(Cl)c3)CC2)coc2c(Cl)cc(Cl)cc12,1.05
18,O=C(OCC(=O)c1ccc[nH]1)c1ccc(S(=O)(=O)N2CCCCCC2)cc1,0.146
19,Cn1c(/C=N/NC(=O)c2ccccc2)nc2ccccc21,0.298
20,CC1(C(=O)NC2CCCC2)CCC(=O)N1Cc1ccccc1Cl (stereo unspecified),-0.0897
21,CCN(CC)C(=O)CSc1nc(O)cc(=O)n1-c1ccccc1OC,0.0527
22,CS(=O)(=O)N1CCC(C(=O)Nc2ccc(OCc3ccccc3)cc2)CC1,-0.0531
23,O=C(Nc1ccc(-c2nnc(-c3ccccc3)o2)cc1)c1ccc(Br)o1,0.643

row,Compound,z-score
1,CCC1(CC)NC(=O)N(CC(=O)NCc2ccc3c(c2)OCO3)C1=O,-0.0887
2,NNC(=O)CNC(c1ccccc1)c1cc(Br)ccc1NC(=O)c1ccccc1Br (stereo unspecified),-0.312
3,O=C(Nc1ccccc1)c1cc2c(=O)c3ccccc3oc2nc1C(F)(F)F,-0.171
4,NS(=O)(=O)c1ccc(N/C=C\C(=O)c2ccc3ccccc3c2)cc1,0.982
5,CCn1c(-c2ccccc2Cl)nn(CC(=O)Nc2ccccc2OC)c1=S,-0.438
6,Fc1c(F)c(C(F)(F)F)c(F)c(F)c1N1CCN(c2ccc3nnc(C(F)(F)F)n3n2)CC1,-0.195
7,CC(=O)Nc1ccc(OCC(O)Cn2cnc3ccccc32)cc1 (stereo unspecified),-0.279
8,Cn1cccc1C(=O)OCC(=O)Nc1ccc2c(c1)CCC2,1.51
9,O=C(NC1CCN(C(=O)Nc2ccccc2)CC1)C1CCCCC1,-0.671
10,Cc1ccc2c(CC(=O)Nc3c(C)n(C)n(-c4ccccc4)c3=O)coc2c1,-1.07
11,C=CCOc1ccc(CNn2c(C)n[nH]c2=S)cc1OC,0.17
12,O=C1C(Cl)=C(Nc2ccccc2O)C(=O)N1CCc1ccccc1,-0.245
13,CC(C)c1cc(C(N)=O)c(NC(=O)C2CCC2)s1,-0.311
14,Cc1ccc(S(=O)(=O)N(C)c2ccc(OCC(=O)Nc3nc4c(ccc5ccccc54)s3)cc2)cc1,-0.0297
15,O=C(CCCOc1ccccc1)N1CCN(S(=O)(=O)c2cccs2)CC1,0.0616
16,O=C(NCCCn1ccnc1)Nc1cccc(Cl)c1,0.583
17,CCn1c(/C=C/c2c(C)[nH]c3ccccc23)nc2ccccc2c1=O,-1.05
18,COc1ccc2c(CCNC(=O)CN3C(=O)c4ccccc4C3=O)c[nH]c2c1,0.0377
19,S=C(NCc1ccccn1)Nc1ccc(Cl)cc1,1.42
20,CC(NC(=O)c1cc2ccccc2o1)c1cccs1 (stereo unspecified),0.289
21,CCOC(=O)c1cnc2ccc(OCC)cc2c1NCc1ccccc1OC,-0.179
22,O=C(Nc1nc2ccccc2[nH]1)c1ccc(F)cc1,0.524
23,Cc1c(C(=O)N2CCN(C)CC2)oc2c1C(=O)CC(C)(C)C2,-0.169

row,Compound,z-score
1,O=S(=O)(c1cccs1)N1CN(CC2CCCO2)c2nc3ccccc3nc21 (stereo unspecified),0.822
2,C=C(C)c1cccc(C(C)(C)NC(=O)N2CCCC(C(N)=O)C2)c1 (stereo unspecified),-0.257
3,O=c1cc(CSc2nnc(COc3ccc(Cl)cc3)o2)c2ccccc2[nH]1,-0.0764
4,CC(C)COC(=O)C1[C@H]2C(=O)N(Cc3cccs3)C[C@]23C=C[C@H]1O3 (stereo partly specified),0.13
5,CCC(=O)Nc1ccc(/C(C)=N/NC(=O)c2c(-c3ccccc3Cl)noc2C)cc1,0.0303
6,CS(=O)(=O)N1CCC(C(=O)Nc2ccc3c(c2)OCO3)CC1,-0.646
7,Cc1ccccc1OCc1nnc(SCC(=O)N2CCc3ccccc32)n1C,-0.183
8,Cn1sc(NC(=O)c2ccccc2Cl)nc1=O,0.19
9,O=C(CSc1nc2scc(-c3ccco3)c2c(=O)n1-c1ccccc1)NCC1CCCO1 (stereo unspecified),-1.16
10,O=C(Nc1ccccc1C(F)(F)F)N1CCCCCC1,-0.254
11,Cc1ccc(-c2ccc(C3C(C#N)=C(N)Oc4n[nH]c(C)c43)o2)cc1 (stereo unspecified),0.0977
12,CC(=O)Nc1ccc(-c2nnc(SCC(=O)NCc3ccco3)n2C)cc1,0.141
13,CCOc1ccc(NS(=O)(=O)c2ccc(OCC(=O)N3CCCC3)cc2)cc1,-0.177
14,O=C(COC(=O)CC12CC3CC(CC(C3)C1)C2)Nc1ncc(Cl)cc1Cl,0.372
15,COC(=O)Cn1ncc2c3ccccc3n(Cc3ccccc3)c2c1=O,-0.163
16,COCCN(C(=O)Nc1ccccc1)C(C)c1cccnc1 (stereo unspecified),-0.368
17,CC1(C)Cc2c(oc3ncn4ncnc4c23)CO1,-0.344
18,CC(=O)N/C(=C\c1ccc(F)cc1)C(=O)N(C)C,-0.0961
19,O=C(Nc1nc(-c2ccccc2Cl)cs1)c1cccnc1,-0.0423
